Here are results for 18 sequences from article PMC12820563, “FoxP3 forms a head-to-head dimer in vivo and stabilizes its multimerization on adjacent microsatellites”.

The list shows a part of the results.

The target of the test is T1, MBP-FoxP1dN (Mus musculus, UniProt P58462 326-579).
T1 sequence: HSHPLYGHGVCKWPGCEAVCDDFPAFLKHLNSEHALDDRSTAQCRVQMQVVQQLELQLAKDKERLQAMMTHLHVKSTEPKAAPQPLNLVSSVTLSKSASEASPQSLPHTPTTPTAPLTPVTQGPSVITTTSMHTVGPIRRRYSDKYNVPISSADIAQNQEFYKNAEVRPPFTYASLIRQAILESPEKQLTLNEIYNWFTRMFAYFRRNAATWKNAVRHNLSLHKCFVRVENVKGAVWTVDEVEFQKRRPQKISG
The test is described as follows: PD-seq (MBP pull-down with sequencing); 20 mM Tris-HCl pH 7.5, 100 mM NaCl, 1.5 mM MgCl2, 0.4 uM protein, 0.1 uM dsDNA library, 30 min, room temperature, amylose pull-down; high values mean tight binding. As to conditions: protein: recombinant; tags: His6-MBP; chain copies: 2; dsDNA, one strand shown. In outline: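 Binding is given as reads-per-million enrichment, pull-down over input, with replicates pooled. The bait was an N-terminus-lacking mouse FoxP3 or FoxP1 fragment with a His6-MBP tag, expressed in E. coli and used at 0.4 µM with 0.1 µM Klenow-filled degenerate double-stranded DNA library for 30 min at room temperature in Tris pH 7.5 buffer with NaCl and MgCl2. Amylose resin pull-down with three washes was followed by proteinase K release, PCR barcoding and Illumina sequencing.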
On to “GATGATTGTTCTCCCAGCTGATGAATTCAACATCTCGAGTAAACAAATTTTCCTAATCTTTCTGTTCAAGCGCCATCTAC”, for which the binding signal is 0.898 RPM ratio (pull-down/input). In the case of “GATGATTGTTCTCCCAGCTGATGAATTCTACCCTTCGAGTAAACAAATTTTCCTAATCTTTCTGTTCAAGCGCCATCTAC”, the binding signal is 0.884 RPM ratio (pull-down/input). On to “GATGATTGTTCTCCCAGCTGATGAATTTTTTATGTCGAGTAAACAAATTTTCCTAATCTTTCTGTTCAAGCGCCATCTAC”, for which the binding signal was 1.04 RPM ratio (pull-down/input). Take “GATGATTGTTCTCCCAGCTGATGAATTGAAAACTTCGAGTAAACAAATTTTCCTAATCTTTCTGTTCAAGCGCCATCTAC”: the binding signal was 0.915 RPM ratio (pull-down/input). The same measure for “GATGATTGTTCTCCCAGCTGATGAATTCTGATATTCGAGTAAACAAATTTTCCTAATCTTTCTGTTCAAGCGCCATCTAC”: 0.931 RPM ratio (pull-down/input); for “GATGATTGTTCTCCCAGCTGATGAATTACGAAGATCGAGTAAACAAATTTTCCTAATCTTTCTGTTCAAGCGCCATCTAC”: 0.987 RPM ratio (pull-down/input). With “GATGATTGTTCTCCCAGCTGATGAATTTTTCGCATCGAGTAAACAAATTTTCCTAATCTTTCTGTTCAAGCGCCATCTAC”, the binding signal was 1.25 RPM ratio (pull-down/input). The same measure for “GATGATTGTTCTCCCAGCTGATGAATTTGCACGTTCGAGTAAACAAATTTTCCTAATCTTTCTGTTCAAGCGCCATCTAC”: 0.98 RPM ratio (pull-down/input); for “GATGATTGTTCTCCCAGCTGATGAATTTTCTCGCTCGAGTAAACAAATTTTCCTAATCTTTCTGTTCAAGCGCCATCTAC”: 0.931 RPM ratio (pull-down/input). The figure for “GATGATTGTTCTCCCAGCTGATGAATTTAAGCGGTCGAGTAAACAAATTTTCCTAATCTTTCTGTTCAAGCGCCATCTAC” is 0.823 RPM ratio (pull-down/input). For the sequence “GATGATTGTTCTCCCAGCTGATGAATTTCGTAGCTCGAGTAAACAAATTTTCCTAATCTTTCTGTTCAAGCGCCATCTAC”, the binding signal is 0.851 RPM ratio (pull-down/input). The figure for “GATGATTGTTCTCCCAGCTGATGAATTATGCTGTTCGAGTAAACAAATTTTCCTAATCTTTCTGTTCAAGCGCCATCTAC” is 1.25 RPM ratio (pull-down/input). For “GATGATTGTTCTCCCAGCTGATGAATTTACCATCTCGAGTAAACAAATTTTCCTAATCTTTCTGTTCAAGCGCCATCTAC”, the binding signal is 1.19 RPM ratio (pull-down/input). For “GATGATTGTTCTCCCAGCTGATGAATTGGGTACCTCGAGTAAACAAATTTTCCTAATCTTTCTGTTCAAGCGCCATCTAC”, the binding signal is 0.88 RPM ratio (pull-down/input). For “GATGATTGTTCTCCCAGCTGATGAATTGTCGGATTCGAGTAAACAAATTTTCCTAATCTTTCTGTTCAAGCGCCATCTAC”, the binding signal is 0.94 RPM ratio (pull-down/input).

As for “GATGATTGTTCTCCCAGCTGATGAATTGTTAGTTTCGAGTAAACAAATTTTCCTAATCTTTCTGTTCAAGCGCCATCTAC”, the binding signal was 1.7 RPM ratio (pull-down/input). “GATGATTGTTCTCCCAGCTGATGAATTATTATGATCGAGTAAACAAATTTTCCTAATCTTTCTGTTCAAGCGCCATCTAC”: the binding signal was 1.41 RPM ratio (pull-down/input). Regarding “GATGATTGTTCTCCCAGCTGATGAATTGAGAACCTCGAGTAAACAAATTTTCCTAATCTTTCTGTTCAAGCGCCATCTAC”, the binding signal is 0.752 RPM ratio (pull-down/input).
